Experimental data published in PubChem BioAssay AID540267 (National Center for Advancing Translational Sciences (NCATS), 2011).
The whole screen tested about 340,000 compounds, of which about 530 (0.16%) were called active. The inconclusive results got no clear call from the source; some entries with a clear call stand among them for comparison. No stated cut-off is given here; in the data, active means activity change below about -80%; inconclusive means between about -30% and that limit; inactive means weaker than that.

test: Small Molecules that selectively kill Giardia lamblia: qHTS; settings: Giardia lamblia trophozoite viability; at 7.66 µM; hits give low values;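 further: parasites exposed to compound for two days anaerobically before the ATP read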
In short: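 Viability, read as ATP luminescence: trophozoites at 100 cells/well, compound added, 48 hrs anaerobic at 37 deg C, then 15-30 min room-temperature development before reading.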
On the % scale 0 is the no-effect control and ±100 the full control effect.

Question: For `CN(C(=O)CSc1ncnc2sccc12)C1CCCCC1`, which activity change is on record?
Answer: inactive: -2.72%

Question: With `COc1cccc(C(=O)/C(C#N)=N/Nc2cccc(-c3ccnc(C)n3)c2)c1` as the compound, how does the activity change read?
Answer: inconclusive: -41.6% [inhibitor]

Question: Which activity change does the source give for `COc1ccc(S(=O)(=O)Nc2ccc3c(c2)n(C)c(=O)n3C)cc1` here?
Answer: inactive: -4.31%

Question: With `Cc1ccc(-c2nn3c(C)nnc3s2)cc1NC(=O)C(C)C` as the compound, how does the activity change read?
Answer: inactive: -8.44%

Question: Which activity change does the source give for `N#Cc1ccc(-c2nc3cc(Cl)ccc3c(=O)n2O)cc1` here?
Answer: inactive: 13.9%

Question: For `O=[N+]([O-])c1cc2c(cc1/C=N/n1cnnc1)OCO2`, which activity change is on record?
Answer: inconclusive: -34.6% [inhibitor]

Question: Which activity change does the source give for `COc1ccc(N2Cc3ccccc3C2=O)cc1` here?
Answer: inconclusive: -30.8% [inhibitor]

Question: For `O=c1oc2ccccc2c(Nc2cccc3ccccc23)c1[N+](=O)[O-]`, which activity change is on record?
Answer: inconclusive: -31.9% [inhibitor]

Question: For `O=[N+]([O-])c1cccc(-c2nnc(C3CC3)o2)c1`, which activity change is on record?
Answer: inconclusive: -40.7% [inhibitor]

Question: Which activity change does the source give for `O=C(c1ccc([N+](=O)[O-])s1)N1CCN(c2cccc(Cl)c2)CC1` here?
Answer: inconclusive: -44.2% [inhibitor]

Question: With `NC(=O)CSC1=Nc2ccccc2C2=NC(CC(=O)NCc3cccs3)C(=O)N12` (stereo unspecified) as the compound, how does the activity change read?
Answer: inconclusive: -36.3% [inhibitor]

Question: Which activity change does the source give for `Cc1ccc(C(=O)c2c3ccc([N+](=O)[O-])cc3[n+]([O-])n2CCC(N)=O)cc1` here?
Answer: inconclusive: -46.1% [inhibitor]

Question: With `N#Cc1ccc(Oc2nc(Nc3ccc(F)cc3)nc(N3CCCC3)n2)cc1` as the compound, how does the activity change read?
Answer: inactive: -2.54%

Question: With `Cc1cc2nc(N3C(=O)CNC3=S)sc2cc1C` as the compound, how does the activity change read?
Answer: inconclusive: -30.4% [inhibitor]

Question: Which activity change does the source give for `Cn1ncc2c(N3CCCCC3)nc(NCCCO)nc21` here?
Answer: inconclusive: -32.7% [inhibitor]

Question: Which activity change does the source give for `O=C(NCc1cccnc1)c1ccc([N+](=O)[O-])o1` here?
Answer: active: -89.5%

Question: For `Oc1ccc(C=NCCc2ccccc2)cc1`, which activity change is on record?
Answer: inactive: -1.99%

Question: Which activity change does the source give for `CNCCC(=O)N1c2ccccc2CCc2ccc(NC(=O)OC)cc21` here?
Answer: inconclusive: -44.6% [inhibitor]

Question: For `O=C(Cc1ccc([N+](=O)[O-])cc1)N/N=C/c1cccnc1`, which activity change is on record?
Answer: inconclusive: -33.8% [inhibitor]

Question: With `Cc1ccc(-c2ccc(/C=C3\SC(N4CCOCC4)=NC3=O)o2)cc1` as the compound, how does the activity change read?
Answer: inactive: 2.68%

Question: For `Cc1sc2ncnc(N3CCC(C(=O)N(C)CC(=O)Nc4ccccc4Br)CC3)c2c1C`, which activity change is on record?
Answer: inactive: -3.86%

Question: For `CCn1nnc(NC(=O)c2ccc(C(C)(C)C)cc2)n1`, which activity change is on record?
Answer: inconclusive: -46% [inhibitor]

Question: For `Fc1ccccc1NC(=S)Nc1cccc2cnccc12`, which activity change is on record?
Answer: inconclusive: -35% [inhibitor]

Question: Which activity change does the source give for `COc1ccc(N(CC(=O)Nc2cccnc2)S(=O)(=O)c2ccccc2)cc1Cl` here?
Answer: inactive: -12.3%

Question: With `O=C1c2cccc3cccc(c23)C(=O)N1CC1CCN(S(=O)(=O)c2ccccc2)CC1` as the compound, how does the activity change read?
Answer: inactive: -12.5%

Question: With `COc1ccc2c(c1)[N+](C)(C)C(C)(C)C=C2C` as the compound, how does the activity change read?
Answer: inconclusive: -39.6% [inhibitor]

Question: With `O=C(Nc1ccccc1N1CCOCC1)c1ccc(N2CCOCC2)c([N+](=O)[O-])c1` as the compound, how does the activity change read?
Answer: inactive: 11.6%

Question: Which activity change does the source give for `N#Cc1ccc(OCC(=O)Nc2cccc(S(=O)(=O)NC3=NCCCCC3)c2)cc1` here?
Answer: inactive: -2.89%

Question: For `CSc1ccc(C2NN=C(c3ccccc3)S2)cc1` (stereo unspecified), which activity change is on record?
Answer: inconclusive: -40.7% [inhibitor]

Question: Which activity change does the source give for `C=C(C)c1cccc(C(C)(C)NC(=O)N2CCCC(C)C2)c1` (stereo unspecified) here?
Answer: inactive: 8.58%

Question: For `Cc1cc(C)nc(NS(=O)(=O)c2ccc(NC(=S)NC(=O)c3cccnc3)cc2)n1`, which activity change is on record?
Answer: inactive: -0.16%

Question: For `COc1ccc(NS(=O)(=O)c2ccc(NC(=O)c3ccccc3Br)cc2)nn1`, which activity change is on record?
Answer: inconclusive: -34% [inhibitor]

Question: Which activity change does the source give for `O=c1c2c3c(sc2ncn1/N=C/c1cccnc1)CCCC3` here?
Answer: inconclusive: -31.7% [inhibitor]

Question: For `O=C1C2C3c4ccccc4C(c4ccccc43)[C@@H]2c2nc3ccccc3n21` (stereo partly specified), which activity change is on record?
Answer: inconclusive: -37.1% [inhibitor]

Question: With `Cc1ccccc1C(=O)Nc1cccc(NC(=O)c2cccnc2)c1` as the compound, how does the activity change read?
Answer: inconclusive: -30.4% [inhibitor]

Question: Which activity change does the source give for `CC(=Nc1ccc(C)cc1C)c1sc2ccccc2c1O` here?
Answer: inconclusive: -47.1% [inhibitor]

Question: For `CC1CCCCC1NC(=O)COc1cccnc1[N+](=O)[O-]` (stereo unspecified), which activity change is on record?
Answer: inconclusive: -50.4% [inhibitor]

Question: With `CCn1c(=O)c(C(=O)NCCN2CCCCC2)c(O)c2ccccc21` as the compound, how does the activity change read?
Answer: inactive: 20.9%

Question: For `CCOC(=O)C1CCN(C(=O)c2c(C)oc3c2C(=O)c2ccccc2C3=O)CC1`, which activity change is on record?
Answer: inconclusive: -52.2% [inhibitor]

Question: With `Cc1ccc2oc(=O)c3cnn(CC(=O)NC4CCN(Cc5ccccc5)CC4)c3c2c1` as the compound, how does the activity change read?
Answer: inactive: -12.2%

Question: Which activity change does the source give for `O=C(Nc1ncccn1)c1ccc([N+](=O)[O-])o1` here?
Answer: active: -92.8%

Question: Which activity change does the source give for `O=C(CCCN1C(=O)/C(=C\c2cccs2)SC1=S)Nc1cc([N+](=O)[O-])ccc1O` here?
Answer: inconclusive: -40.8% [inhibitor]

Question: With `Cc1ccc(S(=O)(=O)N2CCCCC2)cc1` as the compound, how does the activity change read?
Answer: inconclusive: -33.3% [inhibitor]

Question: With `COc1ccc(CN2C(=O)C(CC(C)C)Nc3ncnc(N4CCCCC4)c32)cc1` (stereo unspecified) as the compound, how does the activity change read?
Answer: inconclusive: -47.6% [inhibitor]

Question: With `COc1cc(C(C)=O)ccc1OCC(=O)Nc1ccc2nc(C)sc2c1` as the compound, how does the activity change read?
Answer: inconclusive: -39.2% [inhibitor]

Question: For `CCCCN(CCCC)CCCNC(=O)C1CC(c2ccc(C(F)(F)F)cc2)=NO1` (stereo unspecified), which activity change is on record?
Answer: inactive: 9.15%

Question: For `Cc1cc(N2CCOCC2)c(F)cc1C(=O)c1ccccc1`, which activity change is on record?
Answer: inactive: -5.6%

Question: With `COc1ccccc1CNC(=O)CN(c1cccc([N+](=O)[O-])c1)S(C)(=O)=O` as the compound, how does the activity change read?
Answer: inconclusive: -31.7% [inhibitor]

Question: Which activity change does the source give for `Cc1ccc(C(=O)N/N=C/c2ccc([N+](=O)[O-])s2)cc1` here?
Answer: active: -93.1%

Question: Which activity change does the source give for `O=C(OCC(=O)N1CCC(Cc2ccccc2)CC1)c1ccccc1O` here?
Answer: inconclusive: -33.5% [inhibitor]

Question: Which activity change does the source give for `O=C(CN1CCC(C(=O)c2ccc3c(c2)OCCO3)CC1)Nc1ccccc1F` here?
Answer: inconclusive: -32.5% [inhibitor]

Question: With `Cc1ccccc1C(=O)c1cccn1CC(=O)NCc1ccc(Cl)cc1` as the compound, how does the activity change read?
Answer: inconclusive: -35.7% [inhibitor]

Question: Which activity change does the source give for `c1ccc2c(c1)Cn1nc(Cc3nc4c(s3)CCCC4)nc1-2` here?
Answer: inactive: 2.47%

Question: With `c1ccc2[nH]c(-c3cscn3)nc2c1` as the compound, how does the activity change read?
Answer: inactive: -20%

Question: With `Cc1cc(C(=O)OCC(=O)NNC(=O)c2cccs2)ccc1[N+](=O)[O-]` as the compound, how does the activity change read?
Answer: inactive: -10.6%

Question: For `O=S(=O)(c1ccc2ccccc2c1)N1CCN(c2nc(-c3ccccc3)nc3ccccc23)CC1`, which activity change is on record?
Answer: inconclusive: -33.1% [inhibitor]

Question: With `O=S(=O)(c1ccccc1F)N1CCN(c2nc3ccccc3s2)CC1` as the compound, how does the activity change read?
Answer: inconclusive: -32.7% [inhibitor]

Question: Which activity change does the source give for `C#CC[N+](C)(C)CCCCCCCCCC` here?
Answer: inactive: -16.5%

Question: With `Cc1cc([N+](=O)[O-])cc2c1NC(=O)C2(O)N1CCOCC1` (stereo unspecified) as the compound, how does the activity change read?
Answer: inactive: -10.3%

Question: With `COc1ccc(/C=N/NC(=O)c2ccc(O)cc2)cc1CN1CCCc2ccccc21` as the compound, how does the activity change read?
Answer: inconclusive: -38.1% [inhibitor]

Question: Which activity change does the source give for `COc1ccc(C(C)=O)cc1COc1cccnc1[N+](=O)[O-]` here?
Answer: inconclusive: -50% [inhibitor]

Question: With `CCOc1ccc(NC(=O)CN2CCC(n3cnc4cc(F)ccc43)CC2)cc1` as the compound, how does the activity change read?
Answer: inconclusive: -30.7% [inhibitor]

Question: Which activity change does the source give for `C/C(=N\NC(=O)c1ccncc1)c1cccc(NC(=O)c2ccc(C(C)(C)C)cc2)c1` here?
Answer: inconclusive: -42.8% [inhibitor]

Question: For `O=C(O)CC1COc2ccccc2N1C(=O)c1ccccc1Cl` (stereo unspecified), which activity change is on record?
Answer: inconclusive: -35.1% [inhibitor]

Question: Which activity change does the source give for `COc1ccc(CNC(=O)Cn2nc(C)n3cccc3c2=O)cc1` here?
Answer: inconclusive: -36.8% [inhibitor]

Question: Which activity change does the source give for `Cc1cccc(NC(=O)c2ccc([N+](=O)[O-])o2)c1` here?
Answer: active: -85.9%

Question: With `O=C(COC(=O)c1ccccc1NCCO)NCC1CCCCC1` as the compound, how does the activity change read?
Answer: inconclusive: -31.3% [inhibitor]

Question: With `CC(C)OC(=O)c1cc2c(ccn2-c2ccc(F)cc2)n1CC(=O)N1CCN(C(=O)c2ccco2)CC1` as the compound, how does the activity change read?
Answer: inconclusive: -30.2% [inhibitor]

Question: With `O=C(Nc1ccc(S(=O)(=O)N2CCOCC2)cc1)c1ccc([N+](=O)[O-])s1` as the compound, how does the activity change read?
Answer: inconclusive: -42.1% [inhibitor]

Question: Which activity change does the source give for `CN(C)c1cccc2c1C(=O)c1ccccc1C2=O` here?
Answer: inactive: -10.7%

Question: For `CCn1nc(C)cc1C(=O)N1CCCC(C(=O)c2ccc3ccccc3c2)C1` (stereo unspecified), which activity change is on record?
Answer: inactive: -19.3%

Question: Which activity change does the source give for `O=C1NC(=O)/C(=C\c2ccc(Oc3ccc([N+](=O)[O-])cn3)cc2)S1` here?
Answer: inconclusive: -45.6% [inhibitor]

Question: With `COc1ccccc1C(=O)NC(=S)NNC(=O)c1sc2ccccc2c1Cl` as the compound, how does the activity change read?
Answer: inconclusive: -32.2% [inhibitor]

Question: Which activity change does the source give for `Cc1cc2oc(=O)cc(CN3CCN(Cc4ccc5c(c4)OCO5)CC3)c2cc1C` here?
Answer: inconclusive: -32.1% [inhibitor]

Question: Which activity change does the source give for `CCCc1nc(SCC(=O)c2ccc(F)cc2)c2ccccc2n1` here?
Answer: inactive: -4.14%

Question: With `Nc1c(C(=O)Nc2ccc3c(c2)OCCO3)nnn1Cc1cccc(Cl)c1` as the compound, how does the activity change read?
Answer: inconclusive: -33.7% [inhibitor]

Question: Which activity change does the source give for `O=c1c2ccccc2nc(SCc2ccccc2)n1Cc1ccco1` here?
Answer: inconclusive: -44.3% [inhibitor]

Question: For `Cc1ccccc1CN(C)CC(=O)Nc1c(C)cccc1C(C)C`, which activity change is on record?
Answer: inactive: 5.87%

Question: Which activity change does the source give for `CC1(C)CC(=O)C=C(NNC(=O)c2ccccc2O)C1` here?
Answer: inconclusive: -54.3% [inhibitor]

Question: For `COc1ccc(/C=C2\OC(=O)c3c(OC)cccc32)cc1OC`, which activity change is on record?
Answer: inactive: -20.1%

Question: With `Fc1ccccc1/C=N/Nc1ccc(Cl)nn1` as the compound, how does the activity change read?
Answer: inconclusive: -41.9% [inhibitor]
